The supplement of paper PMC10126150
Sequences with one replicate were seen in a single cluster, so their values are uncertain.

Test system: ATP
Test: switch fluorescence ratio, 500 uM ATP over buffer (Cy3 cluster intensity, sum of 5 cycles each) (fold (ratio)); higher = stronger signal-on switching upon ATP binding; sequences stand for … in TCGTCGGCAGCGTCAGATGTGTATAAGAGACAGTTTTTTTTTTTTTTTTTTTTTTTTT…TC
Conditions: aptamer strand: ATP DNA aptamer (quencher-CACCTGGGGGAGTATTGCGGAGGAAGG + anchor), 100 nM annealed; ATP concentration: 500 uM; one replicate
Procedure, shortened: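 Imaging in selection buffer was followed by imaging after 15 min with 500 uM ATP at 22 °C, for Cy3-labelled switching-strand clusters annealed to 100 nM quencher-labelled ATP aptamer on a modified Illumina MiSeq flow-cell. Five of these buffer/ATP cycles ran, separated by NaOH stripping and re-annealing. The fluorescence ratio per cluster is summed target-cycle over summed buffer-cycle Cy3 intensity, averaged per switch-domain sequence; clusters outside 100-1000 RFU were removed.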
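Further: ATP exposure 15 min at 22 °C before imaging.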

Sequence | switch fluorescence ratio
TTTTCTAGTT | 0.98
CGCTCTGATT | 0.975
GACCTCGTAG | 0.931
GAAAGGACGT | 0.966
CCTGGTTATC | 1.11
GTACTAATGT | 0.993
CTTGAAACGA | 1
GCGACCTTCA | 2.08
ATAGTAGTAT | 0.941
TGAAGCCAAG | 1.02
GATATACATT | 1.03
CATTTAGAC | 0.969
TAGCCCCACT | 0.996
GGTTTTTTCA | 1.01
ACAATCTGCT | 1.03
GTCTAGTGGG | 1.01
ATTTAAGGAT | 1.04
TATTTGCGAT | 1.04
ATGATGGCGG | 1.01
ATTACGGTCG | 1.06
CCGTGTTAAC | 1.23
GAGGCCTGGT | 0.965
TAGGCTGAG | 1.01
CGTCACTCGC | 1.11
TCATGCTCTT | 0.962
AATATGCGGA | 0.994

Sequence | switch fluorescence ratio
GTCATAAAC | 0.944
GATTCTTCTG | 1.01
CATGTGGAAA | 0.991
AAAAGTGTAC | 1.01
CGCGGACATA | 1.06
GGCATGTAGT | 1.01
ATGCTTTGCG | 1.01
TGTGCAAAAC | 1.7
TCAGATTGCG | 0.993
TTTCAGCGT | 0.948
AACACTAGTC | 1.03
AAAAGAGAGC | 1.14
TTCAGGCAAG | 1.78
CATCATTTCT | 1.06
TGGGATTTCG | 0.995
GGGCTATGTT | 1
ATCTTCTTAT | 1.04
AGAATAGAGG | 1.02
CTAATGGTT | 0.964
CGCTTAACGG | 1.01
GTTGTCGTTA | 1.05
TGTGGAGTA | 1.04
TTCGTAAGA | 1.02
ATAGTTCTCA | 0.97
ATATGCCGTT | 1.03
CAAGGGGCCC | 0.986

Sequence | switch fluorescence ratio
AGGAGTAC | 1.02
GAGGGCGTCG | 1.03
GACGCCAATG | 1.06
CTTGTGCTCG | 0.979
AGAAATCAGA | 0.973
GCTCGTAGGA | 1.02
AACAAGCTAC | 1.57
CCCGGTATTA | 1.02
TTCAGTCTGC | 0.954
TGATACTGTA | 1.1
GGCTCTCGCC | 0.952
GCGACGTGTC | 1.07
CTCCTGGGC | 1.17
TAACTTTTTC | 1.17
GAGGTTGAGG | 1
ATTTCCGAAC | 1.19
AAAGGTCGGC | 1.04
TTTAGCTGAT | 1.02
ATTAAAGAAG | 0.988
TTAAATTAGG | 1.04
ATACTGAACG | 1.17
TTTAAGTAC | 1.42
GCGTTAGGTG | 1.09
ACTCGTCTGA | 1.02
CCAATCGTGC | 1.14
AATTAGCATA | 0.992

Sequence | switch fluorescence ratio
CCAGGCGACT | 0.989
TTTCCCCCGG | 2.07
CACGACACTT | 1.44
CTGTCACTA | 0.989
GTTATGGTTC | 0.97
GTAGGTATTT | 0.996
GAGGCCTCTA | 1.01
GAAGTCAGCT | 0.99
AAGGGTGGTT | 0.993
CGGGTACTTG | 0.993
CGGTTGGAGT | 1.03
TCTGCGGGGC | 1.03
AGGAAGAGTG | 0.928
GGCGGGCACG | 0.972
TGGCTTAGCA | 1.02
TCATGATTAT | 1.02
CGATAGACTG | 1.02
AGAGATAGTT | 1.01
AACGGGCTAT | 1.03
GGTTTGTGCG | 0.999
TTTGTAGCGA | 1.7
CGACTAAGTT | 0.991
AAGATGAGGA | 0.962
CGACGTAATT | 4.35
GTCACAATGT | 1.01
ATCAGGCCTC | 0.977

Sequence | switch fluorescence ratio
CCCTGTTCAC | 1.05
CATTTGGTTT | 0.97
AGAGCTAATA | 1.07
CGTCGTTGAC | 0.998
GGGCCATAGC | 0.984
GGAGTACAAC | 1.02
TTTAGACATT | 0.996
TCGATGCTTT | 1.02
ATCATGGGTT | 0.987
TCGCCGATTT | 1.08
ACGATTTACT | 1.08
TTAGCGCGGC | 1.08
GGCAACGGGT | 0.979
TATATTATGG | 0.99
GCCACGGGAC | 1.38
AGGGTAATCC | 1.05
CTCATCTGCT | 1.04
CTTATGTCTT | 0.95
GGCCGCTCTA | 1.05
ACGAGGT | 0.933
CTCCCACATG | 3.29
CATGTGCGGG | 0.987
TTAAGACATG | 0.992
CTGATAGCTG | 1.14
GATTCTTAGT | 0.973
AGTAGAGTTC | 0.999

Sequence | switch fluorescence ratio
ACGTAGTGTA | 1.01
TGACCCTACA | 1.29
GCCGATGTTG | 1.01
GCGATGGCAA | 1.39
TTTGCTTACC | 1.05
TCGGCGCGC | 0.972
ATTCTCATAA | 0.99
GCGGGAACAG | 0.964
CTTTATCGT | 1.01
TTTAGATGTC | 1.04
CTCTTCATGA | 1
GTTGCGTTAC | 1.49
CGGTTCACAC | 1
AAGATGTGTA | 0.989
TTTTTGGCGA | 0.993
CCAGCTTACG | 1.23
CCGCTTGGAT | 1.18
TGAGTGCGTT | 1.04
CGCTAGATA | 1.05
TACGGTACT | 1.56
TACAGGCTGT | 1.03
CTGGTTGAT | 1.17
AACGTATATG | 1.06
CACGATACAA | 1.36
TCAATCCTAG | 1
ATGTTGACAC | 1.02

Sequence | switch fluorescence ratio
TTTATCTCG | 1.02
AAGTCTTCAG | 0.973
GGGACATTT | 1.03
TCGGAAAATT | 0.953
AGAAGATTTT | 0.936
ACATACGGGT | 1.32
GTGCACCGTG | 0.984
CAACGTCTCC | 1.14
CAAAGAGTTA | 1
GATCGGGTA | 0.996
ATGCGGGGG | 0.916
TGAGGACGCT | 1.14
GGATTTATAT | 0.974
AATCCCAGTA | 0.99
TTGAAGTTCA | 1
CAAGGGGCCT | 0.976
AAGGCAAACG | 0.973
ACGGGCCGAC | 1.15
TTATGTCTCA | 1.02
GCTCCTCCCG | 1.76
ACAGGGACGA | 1.04
TTATTATGAC | 0.985
TTTGGGGCAC | 1.03
AGTAGCAGAA | 1.05
CACATCTGGT | 0.997
GCCTAGCCTT | 1.03

Sequence | switch fluorescence ratio
GAGGAGTCTG | 0.959
AGCTCGACAA | 1.08
ACCAATGTGT | 0.995
CTAGTTATGC | 1.02
GCCGCCACGG | 1.04
GCACCACGTT | 1.04
TATCAATTAA | 0.994
AAAAAACTAC | 1.14
ACCCTTTGA | 1.02
GACCAGGCTA | 1.01
TGTTGAATAA | 1
CGTGGGCCTA | 0.97
TAAAAACGT | 1.03
ACACTATGCG | 1.01
GGTATCTGAG | 1.03
AAGCTGTGTA | 1.01
TACGGGGGGA | 1.01
GCGGAAGTAA | 1.02
CAGTCCTTTA | 0.897
